From PubChem BioAssay AID886 (National Center for Advancing Translational Sciences (NCATS), 2007)
Screen size: about 73,000 compounds; about 2,500 (3.4%) were called active. The inconclusive results got no clear call from the source; some entries with a clear call stand among them for comparison. Calls follow the shape of the dose curve; as a rule, active = well fitted inhibition curve with a large enough effect; inconclusive = small, poorly fitted or top-dose-only effect; inactive = no such curve, though single readings can be large or run the other way. Potencies of inconclusive entries are doubtful fits and often do not repeat.
% is scaled to controls: 0 for no effect and ±100 for the full control effect; potency is read from the fitted curve at half-maximal effect; tags tell the direction and shape of the fitted curve.
Also: nearly all actives have a fitted effect of over 60% in size.

Each compound was assayed against 3-hydroxyacyl-CoA dehydrogenase type-2 (Homo sapiens) (UniProt Q99714) (assay: qHTS Assay for Inhibitors of HADH2 (Hydroxyacyl-Coenzyme A Dehydrogenase, Type II)). Settings: recombinant HADH2, NADH fluorescence, beta-hydroxybutyryl-CoA; activity change, negative = inhibition: at 57.1 µM (top of the series).
Sequence of UniProt Q99714 (Q99714 whole entry, looked up): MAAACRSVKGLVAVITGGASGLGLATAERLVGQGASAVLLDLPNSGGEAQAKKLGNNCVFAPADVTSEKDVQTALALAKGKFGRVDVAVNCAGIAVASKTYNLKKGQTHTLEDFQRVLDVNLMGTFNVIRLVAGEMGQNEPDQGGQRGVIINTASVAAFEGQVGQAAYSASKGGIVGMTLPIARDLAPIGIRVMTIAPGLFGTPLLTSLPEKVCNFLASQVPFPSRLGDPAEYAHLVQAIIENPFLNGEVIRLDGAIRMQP
Sequence of UniProt Q99714 (Q99714 whole entry, looked up): as above
In short: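 E. coli-expressed His-tagged HADH2 tested at 20 nM in alkaline Tris buffer (pH 9.0); oxidation of 90 uM beta-hydroxybutyryl-CoA with 1 mM NAD+ tracked fluorimetrically for 4 min.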
For `COc1ccc(Cn2c(=O)[nH]c3cc(C(=O)NCCCN4CCCC4)ccc3c2=O)cc1`, the Potency was inconclusive: 25.1 µM [inhibitor, single point].
`CCOC(=O)Nc1cc2c(cc1C(C)=O)OCO2` was tested, and the Potency was inconclusive: 39.8 µM [inhibitor, single point].
With `COc1ccc(N=C2SC(C(=O)O)CC(=O)N2C)cc1` (stereo not given) the Potency was “inactive”.
In the case of `CCCCCCc1ccc(OCC(=O)O)cc1OCC(=O)O`, the Potency is reported as “inactive”.
With `CC(C)N1C(=O)CCC1C(=O)NC1CCCC1` (stereo not given) the Potency was “inactive”.
With `O[C@@H](c1cc(C(F)(F)F)nc2c(Cl)cc(Cl)cc12)[C@@H]1CCCCN1` the activity change, negative = inhibition was inactive: 6.07% [at 11.4 µM].
For `CCN1CCN(c2nc3ccccc3nc2C(C#N)C(=O)OC2CCCCC2)CC1` (stereo not given), the Potency was inconclusive: 2 µM [inhibitor, full curve].
For `COc1ccc2[nH]cc(CCNc3ccnc(-c4ccccc4C)n3)c2c1`, the Potency was “inactive”.
For `Cc1cccc(C2Nc3ccccc3C(=O)N2CCc2ccccc2)n1` (stereo not given), the Potency was inconclusive: 39.8 µM [inhibitor, single point].
In the case of `Cc1ccc(C(=O)Nc2ccccc2C(=O)NC2CCCCC2)cc1S(=O)(=O)N1CCOCC1`, the Potency is reported as inconclusive: 39.8 µM [inhibitor, single point].
`Cc1[nH]c2ccccc2c(=O)c1CN(C)Cc1ccccc1` was tested, and the Potency was inconclusive: 1 µM [inhibitor, full curve, poor fit].
For `CC(C)CCNC(=O)C1CCN(C(=O)N(C)C)CC1`, the Potency was inconclusive: 5.01 µM [inhibitor, single point].
`CCOC(=O)c1c(C)nc2ncccn12` was tested, and the Potency was active: 20 µM.
With `CC1=C(C(=O)Nc2ccccc2)C(c2ccco2)C(C#N)=C(SCC(=O)Nc2cccc(C)c2C)N1` (stereo not given) the Potency was inconclusive: 39.8 µM [inhibitor, single point].
`COc1cccc(OC(=O)CSc2nnc(-c3ccccc3Br)o2)c1` was tested, and the Potency was inconclusive: 39.8 µM [inhibitor, single point].
`NC(=O)c1sc2nc3c(c(-c4ccco4)c2c1N)CCC3` was tested, and the Potency was inconclusive: 25.1 µM [inhibitor, partial curve].
With `O=C(NCCCn1ccnc1)c1cccc(S(=O)(=O)Nc2ccccc2F)c1` the Potency was “inactive”.
In the case of `CCOC(=O)c1sc2ncn(/N=C/c3ccccn3)c(=O)c2c1C`, the Potency is reported as “inactive”.
`C=CCOC(=O)C(C#N)c1nc2ccccc2nc1N1CCN(Cc2ccc3c(c2)OCO3)CC1` (stereo not given) was tested, and the Potency was “inactive”.
With `CCCn1c(=S)[nH]c2cc(C(=O)N3CCCC(C(=O)OCC)C3)ccc2c1=O` (stereo not given) the Potency was “inactive”.
For `S=c1[nH]ncn1-c1ccccn1`, the Potency was inconclusive: 25.1 µM [inhibitor, single point].
For `O=C(CCN1C(=O)c2ccccc2C1=O)N1CCCCCC1`, the Potency was inconclusive: 31.6 µM [inhibitor, single point].
For `Cc1cc(=O)c2c(O)c(O)ccc2o1`, the Potency was inconclusive: 39.8 µM [inhibitor, single point].
With `COc1ccc2occ(C(=O)c3coc4ccc(O)c(CN(C)C)c34)c2c1` the Potency was “inactive”.
`CC(C)Cc1nnc(NC(=O)CCN2C(=O)c3ccccc3C2=O)s1` was tested, and the Potency was inconclusive: 39.8 µM [inhibitor, single point].
With `Cc1cnc(CNc2ncncc2-c2cccc(C#N)c2)cn1` the Potency was inconclusive: 7.94 µM [inhibitor, full curve].
For `CCCc1nnc(SCc2ccc(OC)cc2)n1N`, the Potency was active: 31.6 µM.
With `COc1cccc(-c2nnc(SCC(=O)N3CCCc4ccccc43)o2)c1` the Potency was inconclusive: 31.6 µM [inhibitor, single point].
`CC(C)Nc1nc(NC(C)C)nc(N(C)C(N)=O)n1` was tested, and the Potency was “inactive”.
With `Cc1ccc(CNC(=O)Nc2cccs2)cc1` the Potency was inconclusive: 25.1 µM [inhibitor, single point].
In the case of `CCOC(=O)C(CC(C)C)CP(=O)(O)CNC(=O)OCc1ccccc1` (stereo not given), the Potency is reported as inconclusive: 7.94 µM [inhibitor, single point].
With `Cc1noc(C)c1CSc1cc(C)c2ccccc2n1` the Potency was “inactive”.
With `CCOc1cc(C)c(C(C)C)cc1S(=O)(=O)N1CCN(C)CC1` the Potency was inconclusive: 25.1 µM [inhibitor, partial curve].
`CC1=C(C#N)c2nc(N)c(C#N)c(C)c2/C1=C\c1ccccc1` was tested, and the Potency was inconclusive: 20 µM [inhibitor, partial curve].
For `CCn1cc(C(=O)N2CCN(C(=O)c3ccco3)CC2)c2cc(OC)c(OC)cc2c1=O`, the Potency was “inactive”.
With `O=C(NCc1cccs1)C1CCN(S(=O)(=O)c2cccc3nsnc23)CC1` the Potency was “inactive”.
With `COc1ccc(OC)c(NC(=O)c2c(NC(=O)CNCc3ccco3)sc3c2CCC3)c1` the Potency was inconclusive: 39.8 µM [inhibitor, single point].
With `CCN(CC)c1ccc2c(c1)oc(=O)c1c(Cl)cc(=O)oc12` the Potency was inconclusive: 12.6 µM [inhibitor, partial curve].
`CCOC(=O)C1=C(C)N=C2SC(C)C(=O)N2C1c1ccc(OCC)c(OCC)c1` (stereo not given) was tested, and the Potency was “inactive”.
For `OCC#CCSc1nnc(-c2ccc(Br)cc2)o1`, the Potency was “inactive”.
`Cc1cc(NS(=O)(=O)c2ccccc2)c(C)c(Cl)c1O` was tested, and the Potency was active: 10 µM.
With `CCc1c(C)sc(NC(=O)c2ccco2)c1C(=O)N1CCCCC1` the Potency was inconclusive: 10 µM [inhibitor, partial curve].
For `COc1ccc(N2CCN(C(=O)COc3ccccc3)CC2)cc1`, the activity change, negative = inhibition was inactive: -2.67% [at 11.4 µM].
`CCOC(=O)N1CCN(C(=O)CSc2nnc(C3COc4ccccc4O3)o2)CC1` (stereo not given) was tested, and the Potency was “inactive”.
For `COc1ccc(NC(=O)N2CC3(CCN(S(C)(=O)=O)CC3)C2)cc1`, the Potency was “inactive”.
`COc1ccc(-c2csc(/C(C#N)=C(\O)CSc3nccn3C)n2)cc1OC` was tested, and the Potency was inconclusive: 20 µM [inhibitor, single point].
For `CCOC(=O)c1c(C(=O)OCC)c(C)n(N2C(=O)CSC2=S)c1C`, the Potency was inconclusive: 1 µM [inhibitor, full curve].
In the case of `COc1ccc(S(=O)(=O)Nc2ccccc2C(=O)NCc2ccco2)cc1Br`, the Potency is reported as “inactive”.
In the case of `COc1cccc(CNC(=O)C(CCSC)NS(=O)(=O)c2ccc3c(c2)oc(=O)n3C)c1` (stereo not given), the Potency is reported as “inactive”.
With `CC1(C)CC(=O)C(C(c2cccnc2)C2C(=O)CC(C)(C)CC2=O)C(=O)C1` the Potency was inconclusive: 20 µM [inhibitor, partial curve].
For `CCCCCn1c(=O)[nH]c2cc(C(=O)NCCCN3CCCCC3)ccc2c1=O`, the Potency was inconclusive: 39.8 µM [inhibitor, single point].
In the case of `Cc1ccc(S(=O)(=O)Cc2cn3cccnc3n2)cc1`, the Potency is reported as active: 20 µM.
With `O=C(NCCCc1ccccc1)c1ccccc1O` the Potency was inconclusive: 5.01 µM [inhibitor, single point].
In the case of `Cc1ccc2nsnc2c1N(S(C)(=O)=O)S(C)(=O)=O`, the Potency is reported as “inactive”.
With `CC(NS(=O)(=O)c1ccccc1)C(=O)Nc1ccc(S(N)(=O)=O)cc1` (stereo not given) the Potency was inconclusive: 15.8 µM [inhibitor, partial curve].
With `O=C(c1cccs1)N(C(=O)c1cccs1)c1ccccn1` the Potency was inconclusive: 31.6 µM [inhibitor, single point].
With `N#Cc1nc(Cc2cccc3ccccc23)oc1NCCN1CCCCC1` the Potency was “inactive”.
With `CN1CCC(CNC(=O)c2ccc(-n3c(=O)c(=O)[nH]c4ccccc43)cc2)CC1` the Potency was “inactive”.
In the case of `CCOc1ccc(S(=O)(=O)N(C)c2ccc(OCC(=O)OCc3c(C)noc3C)cc2)cc1`, the Potency is reported as “inactive”.
With `CNC(=O)c1c(NC(=O)c2nc3ccccc3s2)sc2c1CCC2` the Potency was “inactive”.
With `Cc1nc2cncnc2n(-c2ccccc2)c1=O` the Potency was “inactive”.
For `CCn1c(SCC(=O)c2ccc3c(c2)OCCO3)nnc1C(C)C`, the Potency was inconclusive: 25.1 µM [inhibitor, single point].
For `CCC(NC(=O)c1ccccc1O)c1ccccc1` (stereo not given), the Potency was active: 25.1 µM.
With `CN(C)/C=C1\C=C(c2ccccc2)OC1=O` the Potency was inconclusive: 25.1 µM [inhibitor, single point].
With `COc1ccc(-c2c(C#N)c(N)nc3c2CCCC3)cc1OC` the Potency was “inactive”.
For `O=C(NC1CCCCCC1)C1c2ccccc2C(=O)N1Cc1ccco1` (stereo not given), the Potency was “inactive”.
In the case of `CC(=O)NC(CCS(C)(=O)=O)C(=O)Nc1ccc2c(c1)OCO2` (stereo not given), the Potency is reported as inconclusive: 31.6 µM [inhibitor, single point].
With `Cc1cc(C)n2cc(CSc3nnc(-c4ccccc4)o3)nc2n1` the Potency was “inactive”.
For `Cc1noc(C)c1-c1nccc(N(C)Cc2ccco2)n1`, the Potency was inconclusive: 15.8 µM [inhibitor, partial curve].
For `CC(=O)C1=C(O)C(=O)N(CCc2c[nH]c3ccccc23)C1c1ccco1` (stereo not given), the Potency was inconclusive: 3.16 µM [inhibitor, full curve].
With `COC(=O)c1cc(COc2ccc3oc(C)c(C(=O)OC)c3c2)c(C)o1` the Potency was “inactive”.
In the case of `CCCn1c(SCC(=O)c2cc(OC)ccc2OC)nnc1C(C)C`, the Potency is reported as “inactive”.
In the case of `CN(C)CCNC(=O)c1cc2c(=O)n(C)c3ccccc3c2n1C`, the Potency is reported as inconclusive: 31.6 µM [inhibitor, single point].
For `Oc1ccc(CNc2ccccc2F)c2cccnc12`, the Potency was inconclusive: 7.94 µM [inhibitor, full curve, poor fit].
With `COCCSc1ccccc1C(=O)Nc1ccncc1` the Potency was inconclusive: 31.6 µM [inhibitor, single point].
In the case of `O=C(NC1CCCC1)c1sc(=S)n2c1[nH]c(=O)c1ccccc12`, the Potency is reported as active: 25.1 µM.
For `O=C(OCC(=O)N1CCN(c2ccccc2)CC1)C1=COCCO1`, the Potency was inconclusive: 0.199 µM [inhibitor, full curve, poor fit].
With `Cc1ccc(C2Nc3ccccc3-c3nc4ccccc4n32)o1` (stereo not given) the Potency was active: 15.8 µM.
In the case of `O=c1cccccc1NCc1ccccc1`, the Potency is reported as inconclusive: 15.8 µM [inhibitor, partial curve].
With `CCc1nnc(NC(=O)CCC(=O)N2CCN(CCOc3ccc(C)cc3)CC2)s1` the Potency was active: 3.16 µM.
